# Results from the supplement of paper PMC12645437, “Orthogonal IMiD-Degron Pairs Induce Selective Protein Degradation in Cells” (ACS Chemical Biology, 2025).
# The list shows a part of the results.
# Biological target: no compound (DMSO)
# Experiment: log2 fold change of degron read counts, EGFP-low vs EGFP+ sorted cells; higher = lower degron-EGFP level without compound (poor expression or instability)
# Conditions: compound: DMSO control; 18 h
# 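Further: jurkat cells carrying a lentiviral library of mutant zinc finger degrons fused to EGFP plus mCherry, mCherry+ cells FACS sorted, degron abundance counted by next-generation sequencing.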
row,Sequence,log2 fold change of degron read counts
1,FGCDQCGACFTQKGNLLRHIKL,-1.61
2,FDCNICGACFTQKGNLLRHIKL,-0.718
3,FLCEQCGAKFTQKGNLLRHIKL,-1.47
4,FLCDICGAYFTQKGNLLRHIKL,-0.101
5,FYCEICGRMFTQKGNLLRHIKL,-0.424
6,FRCDVCGAWFTQKGNLLRHIKL,-0.332
7,FECEICGAFFTQKGNLLRHIKL,-0.878
8,FCCPICGAEFTQKGNLLRHIKL,-0.715
9,FGCDQCGAPFTQKGNLLRHIKL,-1.02
10,FFCPICGASFTQKGNLLRHIKL,0.0443
11,FLCNQCGHDFTQKGNLLRHIKL,-1.87
12,FKCPICGHDFTQKGNLLRHIKL,-1.35
13,FVCDVCGAQFTQKGNLLRHIKL,-1.38
14,FLCEVCGAAFTQKGNLLRHIKL,-1.88
15,FCCPICGHYFTQKGNLLRHIKL,0.432
16,FVCDICGAGFTQKGNLLRHIKL,-2.07
17,FLCNQCGAQFTQKGNLLRHIKL,-0.993
18,FCCNQCGRIFTQKGNLLRHIKL,0.69
19,FVCPICGHQFTQKGNLLRHIKL,-0.946
20,FYCDVCGAIFTQKGNLLRHIKL,-0.902
21,FSCPVCGAFFTQKGNLLRHIKL,0.631
22,LHCEICGFCCTQKGNLLRHIKL,0.208
23,FRCEICGHPFTQKGNLLRHIKL,-0.512
24,FCCNQCGAHFTQKGNLLRHIKL,-0.453
25,LACNQCGFFCTQKGNLLRHIKL,1.36

row,Sequence,log2 fold change of degron read counts
1,LQCEICGFWCTQKGNLLRHIKL,-0.127
2,FKCNQCGASFTQKGNLLRHIKL,-0.752
3,FRCEICGAWFTQKGNLLRHIKL,0.103
4,FQCEQCGAAFTQKGNLLRHIKL,-1.9
5,FMCPVCGAFFTQKGNLLRHIKL,0.432
6,FWCPICGHQFTQKGNLLRHIKL,0.799
7,FSCNQCGHTFTQKGNLLRHIKL,-0.185
8,FCCNVCGAEFTQKGNLLRHIKL,-1.57
9,FECNVCGADFTQKGNLLRHIKL,-1.2
10,FQCEICGHCFTQKGNLLRHIKL,-1.43
11,LNCNQCGFQCTQKGNLLRHIKL,0.157
12,LVCPICGFHCTQKGNLLRHIKL,0.771
13,FECPICGHCFTQKGNLLRHIKL,-0.925
14,FNCPICGARFTQKGNLLRHIKL,0.124
15,LWCNQCGFPCTQKGNLLRHIKL,1.74
16,FWCPVCGAVFTQKGNLLRHIKL,1.03
17,FTCPVCGASFTQKGNLLRHIKL,-0.135
18,FNCEVCGAVFTQKGNLLRHIKL,-1.75
19,FVCDQCGAGFTQKGNLLRHIKL,-3.11
20,FTCEQCGANFTQKGNLLRHIKL,-2.45
21,FNCNQCGASFTQKGNLLRHIKL,-1.78
22,FICPICGAVFTQKGNLLRHIKL,0.0236
23,FGCPICGRRFTQKGNLLRHIKL,-0.591
24,FYCDQCGAMFTQKGNLLRHIKL,-1.46
25,FSCEICGANFTQKGNLLRHIKL,-2.13
